Assay results as given in patent publication US20230331809A1 (Zymeworks, published 2023).

Columns and labels:
[1] = target: T1, cMet (tyrosine-protein kinase Met) on EBC1 cells (UniProt P08581); test: flow cytometry on EBC1 cells (cMet), MFI; * poor fit
T1 construct: whole, on cells

[2] = target: T1, cMet (tyrosine-protein kinase Met) on …; test: flow cytometry on EBC1 cells (cMet), MFI
[3] = target: T1, cMet (tyrosine-protein kinase Met) on …; test: flow cytometry on EBC1 cells (cMet), MFI; reference sample

T1 sequence (P08581 25-1390 limits assumed): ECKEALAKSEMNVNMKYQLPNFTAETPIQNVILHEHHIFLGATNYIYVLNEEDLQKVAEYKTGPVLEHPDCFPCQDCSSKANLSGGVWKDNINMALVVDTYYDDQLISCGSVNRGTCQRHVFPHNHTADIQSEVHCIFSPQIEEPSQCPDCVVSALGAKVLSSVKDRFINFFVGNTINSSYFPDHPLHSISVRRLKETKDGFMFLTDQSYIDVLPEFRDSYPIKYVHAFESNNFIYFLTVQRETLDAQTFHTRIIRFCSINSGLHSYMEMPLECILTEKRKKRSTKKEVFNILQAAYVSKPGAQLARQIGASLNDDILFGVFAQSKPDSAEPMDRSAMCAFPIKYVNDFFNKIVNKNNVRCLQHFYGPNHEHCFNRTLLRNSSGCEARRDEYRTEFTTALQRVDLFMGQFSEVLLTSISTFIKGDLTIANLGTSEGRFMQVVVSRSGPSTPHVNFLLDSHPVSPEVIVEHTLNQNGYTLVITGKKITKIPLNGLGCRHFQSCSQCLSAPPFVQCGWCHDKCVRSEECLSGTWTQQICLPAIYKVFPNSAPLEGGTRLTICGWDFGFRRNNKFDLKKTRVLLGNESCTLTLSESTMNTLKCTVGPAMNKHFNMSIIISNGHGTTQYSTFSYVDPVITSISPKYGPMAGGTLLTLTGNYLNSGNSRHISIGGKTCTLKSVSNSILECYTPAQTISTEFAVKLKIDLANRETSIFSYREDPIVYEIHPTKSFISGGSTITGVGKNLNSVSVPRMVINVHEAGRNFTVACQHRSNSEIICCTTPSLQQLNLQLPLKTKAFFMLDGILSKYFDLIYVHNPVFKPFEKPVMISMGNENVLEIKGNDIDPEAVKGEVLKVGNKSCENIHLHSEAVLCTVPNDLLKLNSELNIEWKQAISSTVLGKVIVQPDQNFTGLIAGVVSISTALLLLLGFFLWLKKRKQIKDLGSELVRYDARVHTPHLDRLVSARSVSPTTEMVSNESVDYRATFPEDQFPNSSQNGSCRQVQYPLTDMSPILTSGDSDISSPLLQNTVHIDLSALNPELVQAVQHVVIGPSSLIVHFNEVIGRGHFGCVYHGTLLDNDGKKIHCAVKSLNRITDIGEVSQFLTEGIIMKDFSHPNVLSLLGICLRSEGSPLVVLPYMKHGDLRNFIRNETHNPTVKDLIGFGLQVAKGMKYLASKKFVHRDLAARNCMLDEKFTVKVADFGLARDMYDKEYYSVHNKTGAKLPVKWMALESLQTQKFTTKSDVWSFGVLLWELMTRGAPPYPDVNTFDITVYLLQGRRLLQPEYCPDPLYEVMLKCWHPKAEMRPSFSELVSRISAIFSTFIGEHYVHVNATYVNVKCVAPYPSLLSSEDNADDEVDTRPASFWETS

Binder	EC50 [1]	Fold wrt WT [1]	EC50 [2]	Fold wrt WT [3]
Variant 28647: HA PD-1:WT PD-L1 masked acMet Mab, uncleavable (antibody) heavy: [about 120 residues not shown]AAAKEAAAKQVQLVQSGAEVKKPGASVKVSCKASGYIFTAYTMHWVRQAPGQGLEWMGWIKPNNGLANYAQKFQGRVTMTRDTSISTAYMELSRLRSDDTAVYYCARSEITTEFDYWGQGTLVTVSSASTKGPSVFPLAPSSKSTSGGTAALGCLVKDYFPEPVTVSWNSGALTSGVHTFPAVLQSSGLYSLSSVVTVPSSSLGTQTYICNVNHKPSNTKVDKRVEPKSCDCH[human IgG1 Fc not shown] light: AFTVTVPKDLYVVEYGSNMTIECKFPVEKQLDLAALIVYWEMEDKNIIQFVHGEEDLKVQHSSYRQRARLLKDQLSLGNAALQITDVKLQDAGVYRCMISYGGADYKRITVKVNAEAAAKEAAAKDIVMTQSPDSLAVSLGERATINCKSSESVDSYANSFLHWYQQKPGQPPKLLIYRASTRESGVPDRFSGSGSGTDFTLTISSLQAEDVAVYYCQQSKEDPLTFGGGTKVEIKRTVAAPSVFIFPPSDEQLKSGTASVVCLLNNFYPREAKVQWKVDNALQSGNSQESVTEQDSKDSTYSLSSTLTLSKADYEKHKVYACEVTHQGLSSPVTKSFNRGEC	> 100 nM	> 71 fold		
Variant 17606: Unmasked acMet mAb (antibody) heavy: GQVQLVQSGAEVKKPGASVKVSCKASGYIFTAYTMHWVRQAPGQGLEWMGWIKPNNGLANYAQKFQGRVTMTRDTSISTAYMELSRLRSDDTAVYYCARSEITTEFDYWGQGTLVTVSSASTKGPSVFPLAPSSKSTSGGTAALGCLVKDYFPEPVTVSWNSGALTSGVHTFPAVLQSSGLYSLSSVVTVPSSSLGTQTYICNVNHKPSNTKVDKRVEPKSCDCH[human IgG1 Fc not shown] light: GDIVMTQSPDSLAVSLGERATINCKSSESVDSYANSFLHWYQQKPGQPPKLLIYRASTRESGVPDRFSGSGSGTDFTLTISSLQAEDVAVYYCQQSKEDPLTFGGGTKVEIKRTVAAPSVFIFPPSDEQLKSGTASVVCLLNNFYPREAKVQWKVDNALQSGNSQESVTEQDSKDSTYSLSSTLTLSKADYEKHKVYACEVTHQGLSSPVTKSFNRGEC			1.4 nM	1 fold
